88 compounds from publication PMC4336329 (PLoS ONE, 2015) can be followed below.

The whole screen tested about 310,000 compounds, of which about 14,000 (4.5%) showed an effect of 50% or more. The effect is printed as a negative number. The list shows a part of the results.
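Note: peak tail current of the secondary pulse compared with the same well before compound.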

Chain of human ether-à-go-go-related gene (hERG) potassium channel (Q12809 whole entry, looked up): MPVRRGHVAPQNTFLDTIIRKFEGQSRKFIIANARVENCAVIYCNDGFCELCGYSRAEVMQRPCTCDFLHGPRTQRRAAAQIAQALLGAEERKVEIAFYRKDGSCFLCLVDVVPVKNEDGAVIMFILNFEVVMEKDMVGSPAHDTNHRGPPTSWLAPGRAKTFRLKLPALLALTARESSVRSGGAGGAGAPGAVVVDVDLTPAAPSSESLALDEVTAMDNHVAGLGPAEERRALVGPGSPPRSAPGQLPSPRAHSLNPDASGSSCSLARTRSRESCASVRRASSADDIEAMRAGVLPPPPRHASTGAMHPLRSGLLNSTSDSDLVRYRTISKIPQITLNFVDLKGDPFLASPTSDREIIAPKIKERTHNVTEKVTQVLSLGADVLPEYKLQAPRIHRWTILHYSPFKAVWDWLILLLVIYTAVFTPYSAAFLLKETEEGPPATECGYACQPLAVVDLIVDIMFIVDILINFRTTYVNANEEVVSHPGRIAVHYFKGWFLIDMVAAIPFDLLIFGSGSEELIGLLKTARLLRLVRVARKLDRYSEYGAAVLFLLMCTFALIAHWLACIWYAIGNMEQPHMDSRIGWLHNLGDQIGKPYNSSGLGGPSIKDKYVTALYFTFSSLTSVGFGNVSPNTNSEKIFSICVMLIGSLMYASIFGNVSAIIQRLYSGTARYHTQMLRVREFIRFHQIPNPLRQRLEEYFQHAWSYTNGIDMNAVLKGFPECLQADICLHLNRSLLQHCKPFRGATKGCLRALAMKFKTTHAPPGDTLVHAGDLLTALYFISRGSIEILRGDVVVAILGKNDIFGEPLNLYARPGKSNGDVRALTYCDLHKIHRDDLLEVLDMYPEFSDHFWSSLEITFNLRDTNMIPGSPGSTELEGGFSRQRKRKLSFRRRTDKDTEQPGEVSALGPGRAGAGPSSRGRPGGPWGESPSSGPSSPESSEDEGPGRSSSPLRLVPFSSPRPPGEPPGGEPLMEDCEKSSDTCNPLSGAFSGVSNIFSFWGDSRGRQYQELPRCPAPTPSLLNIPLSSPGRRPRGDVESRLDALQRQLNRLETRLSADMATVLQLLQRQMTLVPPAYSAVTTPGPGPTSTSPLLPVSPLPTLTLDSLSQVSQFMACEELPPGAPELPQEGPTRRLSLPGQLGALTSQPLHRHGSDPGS

This test has as its target human ether-à-go-go-related gene (hERG) potassium channel (human, UniProt Q12809). Kind of test: primary screen, population patch clamp on CHO cells stably expressing hERG.
For `COc1ccc(CC(=O)N2CCc3cc(OC)c(OC)cc3C2O)cc1OC` (stereo not shown), the “hERG current change (%, negative = inhibition) at 10uM” value was 8.05%.
The value for `Cc1ccc(-n2cc(C(=O)O)c(=O)cc2C)c(C)c1` was -35.1%; that for `N#CCCn1cc(/C=N/O)c(-c2ccc(Cl)cc2)n1` was -14.4%.
As for `Cc1cc(=O)oc2c3c(cc(OCC(=O)N4CCC(C(=O)O)CC4)c12)OC(C)(C)CC3`, the “hERG current change (%, negative = inhibition) at 10uM” value amounted to 9.46%.
The value for `COc1ccc(CCNC(=O)C2CCCN(c3ncccn3)C2)cc1` (stereo not shown) was -10.8%.
Next, `CCCC(c1nnnn1Cc1cccs1)N1CCN(C)CC1.Cl` (stereo not shown): -29.4%.
The value for `COC(=O)C1=C(c2ccc(Cl)c(C(F)(F)F)c2)C[C@@H]2CC[C@H]1N2C(=O)NCCOc1ccccc1` was 11.2%; that for `Cc1ccccc1NC(=S)NCCSc1ccc(Cl)cc1` was 6.08%; that for `O=C(Cc1cccs1)NCc1ccc2c(c1)OCO2` was 2.41%.
In the case of `O=C(N/N=C/c1ccc2c(c1)OCO2)C(=O)Nc1ccccc1Cl`, the “hERG current change (%, negative = inhibition) at 10uM” value came to 7.26%.
Next, `Cc1coc2c(C)c3oc(=O)c(CCC(=O)N4C[C@H]5C[C@@H](C4)c4cccc(=O)n4C5)c(C)c3cc12`: -50.6%; `O=C(OCC(=O)N1CCN(S(=O)(=O)c2ccc(Cl)cc2)CC1)c1cc(Br)ccc1O`: 6.4%.
Next, `O=C(/C=C/c1ccccc1[N+](=O)[O-])Nc1cccnc1`: -6.87%; `O=C(O)c1ccc(NS(=O)(=O)c2cc(Cl)ccc2Cl)cc1`: -1.95%.
The value for `COc1cc2nc(C3CCC3)n(NC(=O)C(OC(C)=O)c3ccccc3)c(=O)c2cc1OC` (stereo not shown) was 9.45%.
For `O=C(NCCCn1ncc2ccccc21)c1cc(COc2c(F)cccc2F)on1`, the “hERG current change (%, negative = inhibition) at 10uM” value was 6.73%.
Next, `OCCSc1c(F)c(SCCO)c(SCCO)c(F)c1SCCO`: 1.25%.
Regarding `CCCc1c(C(=O)NNc2cccc(Cl)c2)cnn1-c1ccccc1`, the “hERG current change (%, negative = inhibition) at 10uM” value was -5.55%.
For `CCCCC(=O)N1C/C=C\C(c2ccc(OC)cc2)N(Cc2ccc(F)cc2)C(=O)C1` (stereo not shown), the “hERG current change (%, negative = inhibition) at 10uM” value was -30.5%.
On to `CCCCN(C)C(=O)CC(NS(=O)(=O)c1ccc(NC(C)=O)cc1)C(C)C` (stereo not shown), for which the “hERG current change (%, negative = inhibition) at 10uM” value worked out at 9.63%.
The value for `O=C1S/C(=C\c2ccc(N3CCOCC3)o2)C(=O)N1Cc1ccc(F)cc1` was 0.303%; that for `CCC(=O)c1cc2c(C)cc(=O)oc2c(C)c1OC(=O)C(C)C` was -2.05%.
Next, `COc1cccc(-n2nnc3c(=O)n(Cc4ccc(F)cc4)cnc32)c1`: -3.68%; `COc1ccc(CCNC(=O)CN(C2CCCCC2)S(C)(=O)=O)cc1`: 1.84%; `NC1=C([N+](=O)[O-])C(c2ccc3c(c2)OCO3)c2c(c3ccccc3oc2=O)O1` (stereo not shown): -21.3%.
On to `Cc1cc(N2CCOCC2)n2nc(C)c(-c3ccccc3Cl)c2n1`, for which the “hERG current change (%, negative = inhibition) at 10uM” value is reported as -32.7%.
Next, `CCCCNC(=O)CNC(=O)c1nn(-c2ccc(OC)c(Cl)c2)c(=O)c2ccccc12`: 9.5%; `C=CCn1c(O)c(C(CC)=NCCc2c[nH]c3ccccc23)c(=O)[nH]c1=O`: -34.2%.
Next, `Cc1ccc(C(=O)O)cc1NC(=O)c1ccc(Cn2nc(C)c(Cl)c2C)o1`: 38.7%.
On to `O=C(N/N=C/c1ccc([N+](=O)[O-])o1)c1ccc2c(c1)OCO2`, for which the “hERG current change (%, negative = inhibition) at 10uM” value came out at 4.2%.
The value for `CC(NC(=O)Nc1ccc(F)cc1F)c1ccc2c(c1)OCO2` (stereo not shown) was -0.996%.
The value for `CC1CCN(c2nc(CN3CCCCC3)nc3scc(-c4ccccc4)c23)CC1` was -75.5%; that for `O=C(CSc1ccc(Cl)cc1)N/N=C/c1ccc([N+](=O)[O-])o1` was -12.5%; that for `CCOc1ccc(S(=O)(=O)NCCC(=O)OCC(=O)c2ccc[nH]2)cc1` was 14.6%.
On to `O=C(NCc1ccco1)c1cnccn1`, for which the “hERG current change (%, negative = inhibition) at 10uM” value was 1.55%.
Regarding `CCOc1ccc(N(CC(=O)NC2CCCC2)C(=O)CSc2nnc(COc3ccccc3)o2)cc1`, the “hERG current change (%, negative = inhibition) at 10uM” value is recorded as -24.4%.
The value for `CCS(=O)(=O)N1CCN(S(=O)(=O)c2ccccc2)CC1.O=C(O)C(=O)O` was -5.25%; that for `O=C1CCC(C(=O)Nc2ccccc2)N1` (stereo not shown) was 22.1%; that for `O=C1OC(CO)CN1Cc1ccccc1` (stereo not shown) was 12.3%.
Next, `CCOc1ccc(C(=O)CCC(=O)Nc2ncccc2O)cc1`: 5.51%.
In the case of `O=C(Cc1ccc(Br)cc1)NCCN1CCOCC1`, the “hERG current change (%, negative = inhibition) at 10uM” value is listed as 4.99%.
For the compound `C[C@@H]1CCC(=O)N(C[C@@H](C)CC#N)CC1`, the “hERG current change (%, negative = inhibition) at 10uM” value came out at 32.9%.
The value for `Cc1ccc(OCC(=O)NNC(=O)Cn2nnc(-c3ccccc3)n2)cc1` was 16.8%; that for `Cc1[nH]n(-c2c(Cl)cc(Cl)cc2Cl)c(=O)c1C=Nc1ccc(S(=O)(=O)N2CCOCC2)cc1` was -15.2%.
On to `CCN1CCN(C(=O)COc2ccc(S(=O)(=O)N3CCOCC3)cc2C)CC1`, for which the “hERG current change (%, negative = inhibition) at 10uM” value is listed as 17.9%.
Next, `COc1cc(C2NC(=O)N(C)C(C)=C2C(=O)OCc2ccccc2)cc(Br)c1O` (stereo not shown): -8.96%; `CCc1ccc2c(c1)c1nc(C)sc1n2CC`: -5.89%.
The value for `COC(=O)c1ccc(/C=N/OCC(=O)NCc2ccc(F)cc2)cc1` was 17.9%; that for `Cc1nn2c(NCc3ccccn3)cc(C(C)(C)C)nc2c1-c1ccccc1` was 0.0853%.
For `C=CCc1cccc(/C=N/c2nc3ccccc3n2CC)c1O`, the “hERG current change (%, negative = inhibition) at 10uM” value is reported as 7.53%.
Take `CC(=O)OC1C2CCC1C([NH+]1CCCC1)CC2.[Cl-]` (stereo not shown): the “hERG current change (%, negative = inhibition) at 10uM” value is on record as -2.35%.
As for `CCOc1ccc(CNC(=O)Cn2ccc3cc(S(=O)(=O)N4CCCC4)ccc32)cc1`, the “hERG current change (%, negative = inhibition) at 10uM” value is 6.6%.
Next, `COc1ccc(C2=NS(=O)(=O)N(C)C(C(=O)Nc3cc(OC)c(OC)c(OC)c3)=C2)cc1`: 10.5%; `CN(C)c1nc(NCc2ccccc2)nc(SCC(N)=O)n1`: 7.76%; `CC1CCCN(C(=O)c2ccc(CNc3c(N4CCCCC4)c(=O)c3=O)cc2)C1` (stereo not shown): 4.19%.
With `CCOc1ccc(S(=O)(=O)N(C)c2ccc(OCC(=O)NCc3cccnc3)cc2)cc1`, the “hERG current change (%, negative = inhibition) at 10uM” value is -21.5%.
`Cn1c(SCC(=O)Nc2sccc2C#N)nnc1-c1ccccc1`: the “hERG current change (%, negative = inhibition) at 10uM” value is recorded as -2.65%.
The value for `Cc1ccccc1N1C(=O)NC(=O)/C(=C\c2cc(C)n(C)c2C)C1=O` was -3.79%; that for `O=C(Nc1ccccc1N1CCOCC1)c1ccc2ccccc2c1` was -26.2%.
The value for `Cc1nnc(SCC(=O)Nc2ccccc2F)n1-c1ccc(F)cc1` was -13%; that for `COc1ccc(C)cc1S(=O)(=O)N(C)CC(=O)N1CCC(C(N)=O)CC1` was 21.5%.
In the case of `CC(=O)Nc1ccc(C2=NNC(=Nc3cccc(S(=O)(=O)N(C)C)c3)SC2)cc1`, the “hERG current change (%, negative = inhibition) at 10uM” value is reported as 6.72%.
Next, `COc1ccc(CNC(=O)C2CCC(CNc3c(N4CCCCC4)c(=O)c3=O)CC2)cc1` (stereo not shown): 16.6%.
Regarding `Cc1noc(C)c1CSCC(=O)Nc1ccc(S(=O)(=O)C(F)F)cc1`, the “hERG current change (%, negative = inhibition) at 10uM” value is recorded as -29.4%.
Turning to `COc1ccccc1CNC(=O)c1ccc(OC(C)C)cc1`, the “hERG current change (%, negative = inhibition) at 10uM” value amounted to 17.6%.
Next, `COc1ccc(NS(=O)(=O)c2cccc(N/C(=N\S(=O)(=O)c3ccccc3)c3ccc(F)cc3)c2)cc1`: 3.23%.
The value for `COC(=O)C1=C(C)OC(N)=C(C#N)C1C1CCCCC1` (stereo not shown) was 10.6%; that for `COc1ccc(-c2noc(N(C)CC(=O)Nc3cccc(C(F)(F)F)c3)n2)cc1` was 11.4%.
Next, `COc1ccc(N2C(=O)C3CCCN3C2=S)cc1` (stereo not shown): 23.8%; `COc1cccc(-c2cc(=O)c3cc(NC(=O)c4ccc(Cl)cc4)ccc3[nH]2)c1`: 14%; `O=C(NCCc1ccccc1Cl)C1CCC(=O)N(CC2CCCCC2)C1` (stereo not shown): -16.7%.
Consider `COc1cc(NC(=O)C2CCN(c3cnccn3)CC2)cc(OC)c1`, for which the “hERG current change (%, negative = inhibition) at 10uM” value is listed as -5.64%.
The value for `Cc1ccc(NC(=O)C2CC(=O)N(Cc3ccco3)C2)cc1` (stereo not shown) was 1.85%; that for `CCN(CC)c1ncc(C#N)c(N)n1` was 8.37%.
In the case of `O=C(CN1CCN(c2ccccn2)CC1)Nc1cccc(S(=O)(=O)N2CCOCC2)c1`, the “hERG current change (%, negative = inhibition) at 10uM” value was -12.3%.
In the case of `Cc1c(N(C)CS(=O)(=O)O)c(=O)n(-c2ccccc2)n1C.[Na]`, the “hERG current change (%, negative = inhibition) at 10uM” value is on record as 16.5%.
Next, `CCC(C)N1CCN(C(=O)Cc2ccccc2)CC1.O=C(O)C(=O)O` (stereo not shown): 8.01%; `O=C(/C=C/c1ccccc1)NCCS(=O)(=O)N1CCN(c2ccc(F)cc2)CC1`: -30.7%.
Regarding `NC(=O)c1cnn2c(-c3cccc(C(F)(F)F)c3)ccnc12`, the “hERG current change (%, negative = inhibition) at 10uM” value is listed as -2.33%.
The value for `COc1ccccc1OCC(=O)Nc1ccc2c(c1)OCO2` was 6.27%; that for `Cc1cc(NCCc2ccc(Cl)cc2)n2ncnc2n1` was -39.1%; that for `CCCOc1ccc(N2C(=O)CC(SC(=NCC)NCC)C2=O)cc1` (stereo not shown) was 11.9%.
As for `CC(OC(=O)CN1C(=O)NC2(CCCC2)C1=O)C(=O)Nc1cccc(Cl)c1Cl` (stereo not shown), the “hERG current change (%, negative = inhibition) at 10uM” value is listed as 1.75%.
Consider `CSc1nnnn1-c1c(C)cc(C)cc1C`, for which the “hERG current change (%, negative = inhibition) at 10uM” value turned out to be 5.83%.
The value for `COCc1nnc(NC(=O)CC(c2ccccc2)c2ccccc2)s1` was 7.91%; that for `Cc1ccccc1OCCn1cc(C(=O)C(=O)N2CCOCC2)c2ccccc21` was -6.7%; that for `CN1CCN(CCCCOc2ccc(F)cc2)CC1` was 0.265%.
With `Cc1ccc(NC(=O)C(C)c2cccc(C(=O)c3ccccc3)c2)cc1` (stereo not shown), the “hERG current change (%, negative = inhibition) at 10uM” value is -5.39%.
